Measured values reported in US20120094384A1, “USE OF COMPOUNDS FOR DIFFERENTIATION OF CELLS” (priority 2009, published 2012).

System: E14Tg2a cells (mouse embryonic stem cells)
Assay: qPCR analysis of differentiation marker gene expression in embryoid bodies (EBs)
Conditions: 0.5 μM AO1530 and/or 3 μM tBHP; for Gene Expression Relative to Control: Nox 1: 100 ng/ml Activin A treated EBs
[1] = 100 ng/ml Activin A-treated EBs
[2] = Spontaneously differentiating EBs

Row | SMILES | Gene Expression Relative to Control: Nox 1 | Nox 1 expression, fold change vs control [1] [fold] | Brachyury expression, fold change vs control (1 μM retinoic acid-treated EBs) [fold] | Cxcr 4 expression, fold change vs control (1 μM retinoic acid-treated EBs) [fold] | Foxa 2 expression, fold change vs control (1 μM retinoic acid-treated EBs) | Pax 6 expression, change vs control (1 μM retinoic acid-treated EBs) | Sox 1 expression, change vs control (1 μM retinoic acid-treated EBs) | Sox 17 expression, fold change vs control (1 μM retinoic acid-treated EBs) | Brachyury expression, fold change vs control [2] | Cxcr 4 expression, fold change vs control [2] [fold] | Gene Expression Relative to Control: Sox 17 [2] | Sox 1 expression, fold change vs control [2] | Sox 17 expression, fold change vs control [2] [fold] | Nox 1 expression, fold change vs control (1 μM retinoic acid-treated EBs) [fold] | Foxa 2 expression, change vs control [2] | Gene Expression Relative to Control: Sox 1 [2]
1 | CCCCCCCCCCc1ccc2c(=O)c(O)c(-c3cc(O)c(O)c(O)c3)oc2c1 [AO1530] | ↑ (up to 10 fold up-regulation of gene expression) | ~4.6 | ~0.3 | 2.3 | not observed | decrease in gene expression | decrease in gene expression | not observed | no apparent change in gene expression | ~1.4 | ↑ (up to 10 fold up-regulation of gene expression) | almost reduced to the base level | ~1.4 | – | – | –
2 | CC(C)(C)OO [tBHP, tert-butyl hydroperoxide, reference compound] | ↑ (up to 10 fold up-regulation of gene expression) | ~7.5 | – | ~3.8 | ~2 fold | increased gene expression | increased gene expression | ~2.3 fold | no apparent change in gene expression | – | – | ~2.8 fold | – | ~2.2 | decreased | ↑ (up to 10 fold up-regulation of gene expression)
